# From PubChem BioAssay AID2675 (National Center for Advancing Translational Sciences (NCATS), 2010)
# Hit rate of the full screen: of about 280,000 compounds, about 100 (0.036%) were called active. The shares of active, inactive and inconclusive entries below differ from those in the screen. Calls come from the whole dose curve; as a rule, active = well fitted inhibition curve with a large enough effect in the signal ratio, with a control signal flat (not every such curve was filed as active); inconclusive = small, poorly fitted or top-dose-only effect, or effect the other way, or a change in a side signal; inactive = no such curve, though single readings can be large or run the other way; the % refers to the signal ratio. Where the call is inconclusive, the potency comes from a doubtful curve fit. A note “side channel” means that the fit belongs to a control or component signal, not to the main read-out.
# Target: Muscleblind-like protein 1 (Homo sapiens) (UniProt Q9NR56)
# Assay: qHTS Assay for Inhibitors of MBNL1-poly(CUG) RNA binding
# Conditions: TR-FRET MBNL1-His/biotin-(CUG)12 binding, 665/545 ratio; series mostly up to 57.5 µM
# Summary of the method: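 Compound titration spanned 92 nM–58 uM against the MBNL1-His/biotin-(CUG)12 complex. After 60 min at room temperature with 5 nM streptavidin-XL665 and 0.055 ng/ul terbium anti-His, ratiometric 665/545 nm emission (Ex 340 nm) normalized to controls.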
# Potency is the fitted concentration of half-maximal effect; tags give direction and shape of the fitted curve or compound fluorescence and quenching.
# Sequence of UniProt Q9NR56 (Q9NR56 whole entry, looked up): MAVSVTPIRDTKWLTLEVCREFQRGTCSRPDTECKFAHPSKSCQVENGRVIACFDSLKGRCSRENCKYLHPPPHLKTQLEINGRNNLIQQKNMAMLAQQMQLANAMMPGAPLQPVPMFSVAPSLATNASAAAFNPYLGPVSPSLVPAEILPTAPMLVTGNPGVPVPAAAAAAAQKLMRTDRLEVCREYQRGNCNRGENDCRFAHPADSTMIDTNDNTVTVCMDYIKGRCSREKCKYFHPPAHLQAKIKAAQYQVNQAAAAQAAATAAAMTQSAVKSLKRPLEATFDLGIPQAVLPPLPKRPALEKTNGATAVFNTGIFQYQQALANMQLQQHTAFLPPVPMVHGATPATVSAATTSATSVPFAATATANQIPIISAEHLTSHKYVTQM
row,SMILES,Potency
1,O=C(NNC(=O)c1ccccc1Br)c1ccc(SCC2CCCO2)c([N+](=O)[O-])c1 (stereo not drawn),"inconclusive: 14.1 µM [quencher, side channel, partial curve]"
2,Cc1ccc(/C=N/NC(=O)c2cccs2)o1,"inconclusive: 39.8 µM [quencher, single point]"
3,Cc1ccc(C(=O)OCC(=O)N(C)C2CCS(=O)(=O)C2)cc1[N+](=O)[O-] (stereo not drawn),"inconclusive: 15.8 µM [quencher, side channel, partial curve]"
4,CC1CCN(C(=O)C(Cc2ccccc2)n2cccc2)CC1 (stereo not drawn),"inconclusive: 0.794 µM [quencher, side channel, single point]"
5,Cc1nonc1OCCNCCNc1ccc([N+](=O)[O-])cc1Cl,"inconclusive: 17.8 µM [quencher, side channel, partial curve]"
6,CCCCN1C(=O)c2ccc(C(=O)Nc3c(N)n(CCCC)c(=O)n(C)c3=O)cc2C1=O,"inconclusive: 20 µM [quencher, side channel, partial curve]"
7,Cc1ccc(S(N)(=O)=O)cc1NC(=O)/C=C/c1cccs1,"inconclusive: 22.4 µM [quencher, side channel, partial curve]"
8,COc1ccc(N(C(=O)c2cccnc2)S(=O)(=O)c2ccc3c4c(cccc24)C(=O)N3C)cc1,"inconclusive: 0.141 µM [quencher, side channel, full curve, poor fit]"
9,Cc1ccc(NC(=O)c2ccncc2)cc1[N+](=O)[O-],"inconclusive: 4.47 µM [quencher, side channel, partial curve]"
10,CC1=NN(c2nc(-c3ccccc3)cs2)C(=O)C1,inactive
11,COc1ccc(CNc2oc(-c3ccccc3)nc2C#N)cc1,inactive
12,O=C(/C=C/c1ccc(O)cc1)c1ccc(O)cc1O,inactive
13,CCOC(=O)C1CCCN(/C=C2\SC(=S)N(CC)C2=O)C1 (stereo not drawn),"inconclusive: 25.1 µM [quencher, side channel, single point]"
14,COc1ccc(OC)c(/C=N/c2oc(-c3ccco3)c(-c3ccco3)c2C#N)c1,"inconclusive: 28.2 µM [quencher, side channel, single point]"
15,CC(NC(=O)/C(C#N)=C/c1cn[nH]c1-c1ccccc1)c1ccccc1 (stereo not drawn),"inconclusive: 39.8 µM [quencher, side channel, single point]"
16,CCN(CC)C(=O)CSC1=N/C(=C/c2ccco2)C(=O)N1c1ccc(OC)c(Cl)c1,"inconclusive: 22.4 µM [quencher, side channel, partial curve, poor fit]"
17,Cc1ccc(-c2nc3ncccc3o2)cc1NC(=O)COc1ccccc1,inactive
18,CCCCCCC(=O)N(O)C1CC(=O)N(c2ccc(F)cc2)C1=O (stereo not drawn),inactive
19,O=[n+]1c2c(n([O-])c3cc(Cl)ccc31)CCCC2,"inconclusive: 14.1 µM [quencher, side channel, partial curve]"

row,SMILES,Potency
1,Cc1ccc(N(C(=O)c2snc(C(N)=O)c2N)C(C(=O)NC2CCCC2)c2ccco2)cc1 (stereo not drawn),"inconclusive: 44.7 µM [quencher, side channel, partial curve, poor fit]"
2,O=C(c1ccco1)N1CCN(Cc2nc3ccc([N+](=O)[O-])cc3c(=O)n2-c2ccccc2F)CC1,"inconclusive: 3.98 µM [quencher, partial curve]"
3,CCCCOc1ccc(C(=O)OCC(=O)Nc2cc(C)c(C)cc2[N+](=O)[O-])cc1,"inconclusive: 11.2 µM [fluorescent, side channel, full curve, poor fit]"
4,Cc1ccc(-c2ccccc2NC(=O)C2C3C=CC(C3)C2C(=O)O)o1 (stereo not drawn),"inconclusive: 15.8 µM [quencher, side channel, partial curve]"
5,CSc1ccc(N=Nc2c(C)[nH]n(C)c2=O)cc1,"inconclusive: 10 µM [quencher, partial curve]"
6,COc1cc2c3c(c1OC)C1(C=CC(=NNC(N)=O)C=C1)CC3N(C(C)=O)CC2 (stereo not drawn),"inconclusive: 25.1 µM [quencher, side channel, partial curve]"
7,Cc1nc(Nc2ccc(Cl)cc2Cl)sc1C(=O)Nc1ccccc1,"inconclusive: 22.4 µM [fluorescent, side channel, single point]"
8,CCOc1ccccc1C(=O)NC1CC2CCCC(C1)N2Cc1ccc(C)cc1 (stereo not drawn),inactive
9,N#CC1(Cc2ccc([N+](=O)[O-])cc2)c2ccccc2C=CN1C(=O)c1ccccc1 (stereo not drawn),inactive
10,Cc1ccc(CNC(=O)CN(C)S(=O)(=O)c2cccc3nsnc23)cc1,"inconclusive: 14.1 µM [quencher, side channel, partial curve]"
11,COc1ccc(C2(CNC(=O)/C=C\c3ccco3)CCCC2)cc1OC,"inconclusive: 5.62 µM [quencher, side channel, single point]"
12,N=c1c(C(=O)NCC2CCCO2)cc2c(=O)n3ccccc3nc2n1Cc1ccco1 (stereo not drawn),"inconclusive: 12.6 µM [quencher, side channel, partial curve]"
13,COc1ccc(NC(=O)N2CCN(c3ccc([N+](=O)[O-])cc3)CC2)cc1OC,"inconclusive: 15.8 µM [quencher, partial curve]"
14,O=C(NCCO)/C(=C\c1ccc(Br)cc1)NC(=O)c1cccs1,"inconclusive: 0.891 µM [quencher, side channel, single point]"
15,COc1ccc(NC(C)c2cc(Cl)ccc2O)cc1 (stereo not drawn),inactive
16,CCCn1c(SCC(=O)Nc2cc(S(=O)(=O)N3CCOCC3)ccc2Cl)n[nH]c1=O,inactive
17,COc1ccc(N(C)C(=O)C2CCN(S(=O)(=O)c3cccc4nonc34)CC2)c(OC)c1,"inconclusive: 15.8 µM [quencher, side channel, partial curve]"
18,COc1ccc2nc(-c3cccc(N)c3)[nH]c2c1,"inconclusive: 10 µM [fluorescent, side channel, partial curve, poor fit]"
19,COc1ccc(-n2c(O)c(/C=N/NS(=O)(=O)c3ccc(C)c([N+](=O)[O-])c3)c3ccccc3c2=O)cc1OC,"inconclusive: 14.1 µM [quencher, side channel, partial curve]"
